B1: PhoQ; a variant is named by its letters at X, in order, P23837 (parent)
chain: MKKLLRLFFPLSLRVRFLLATAAVVLVLSLAYGMVALIGYSVSFDKTTFRLLRGESNLFYTLAKWENNKLHVELPENIDKQSPTMTLIYDENGQLLWAQRDVPWLMKMIQPDWLKSNGFHEIEADVNDTSLLLSGDHSIQQQLQEVREDDDDAEMTHSVAVNVYPATSRMPKLTIVVVDTIPVELKSSYMVWSWFIYVLSANLLLVIPLLWVAAWWSLRPIEALAKEVRELEEHNRELLNPATTRELTSLVRNLNRLLKSERERYDKYRTTLTDLTHSLKTPLXXLQXXLRSLRSEKMSVSDAEPVMLEQISRISQQIGYYLHRASMRGGTLLSRELHPVAPLLDNLTSALNKVYQRKGVNISLDISPEISFVGEQNDFVEVMGNVLDNACKYCLEFVEISARQTDEHLYIVVEDDGPGIPLSKREVIFDRGQRVDTLRPGQGVGLAVAREITEQYEGKIVAGESMLGGARMEVIFGRQHSAPKDE

The list shows a part of the results. A value given as a limit tells only on which side of the number the result lay.

This assay covers variants of B1. In words: enrichment ratio after two sorts for PhoP signalling (ratio (wild type AVST 3.29)); higher = more functional. The conditions noted are these: with PhoP (E. coli).
As for AQNT, the enrichment ratio was at most 0.25.

As for EHTM, the enrichment ratio is at most 0.25.

For HQHI, the enrichment ratio was at most 0.25.

In the case of YYDP, the enrichment ratio is at most 0.25.

Regarding QSEA, the enrichment ratio is at most 0.25.

For the variant CIVL, the enrichment ratio was at most 0.25.

As to FVWC, the enrichment ratio was at most 0.25.

Consider YCTP, for which the enrichment ratio is at most 0.25.

GPHS: the enrichment ratio is at most 0.25.

Regarding TLRV, the enrichment ratio is at most 0.25.

On to WDKN, for which the enrichment ratio is at most 0.25.

Take QRCR: the enrichment ratio was at most 0.25.

Turning to RLPG, the enrichment ratio was at most 0.25.

As for SMLD, the enrichment ratio was 2.2.

With VMDS, the enrichment ratio was at most 0.25.

RTEG: the enrichment ratio is at most 0.25.

YDRH: the enrichment ratio is at most 0.25.

For the variant TNFH, the enrichment ratio was at most 0.25.

TPLH: the enrichment ratio is at most 0.25.

For VGGR, the enrichment ratio is at most 0.25.

As for ARMT, the enrichment ratio was at most 0.25.

As for RMPE, the enrichment ratio was at most 0.25.

For VQFS, the enrichment ratio was at most 0.25.

In the case of LDYF, the enrichment ratio is at most 0.25.

Take RLYI: the enrichment ratio is at most 0.25.

For the variant LQPI, the enrichment ratio was at most 0.25.

For QENF, the enrichment ratio was at most 0.25.

Regarding ANFY, the enrichment ratio was at most 0.25.

With FGVF, the enrichment ratio is at most 0.25.

Take IWQC: the enrichment ratio is at most 0.25.

SMDT: the enrichment ratio was at most 0.25.

In the case of ESMD, the enrichment ratio was at most 0.25.

On to ALLD, for which the enrichment ratio was determined as 1.06.

Take REGH: the enrichment ratio is at most 0.25.

Consider TIES, for which the enrichment ratio was 3.3.

As for DEVA, the enrichment ratio is at most 0.25.

Regarding NMPL, the enrichment ratio was at most 0.25.

Regarding ECYD, the enrichment ratio is at most 0.25.

Take PGFL: the enrichment ratio is at most 0.25.

On to SMLK, for which the enrichment ratio was 2.79.

Take EYMP: the enrichment ratio was at most 0.25.

As for FWVF, the enrichment ratio is at most 0.25.

As to YDPH, the enrichment ratio is at most 0.25.

With IRRQ, the enrichment ratio is at most 0.25.

With FHWL, the enrichment ratio is at most 0.25.

For the variant KDRW, the enrichment ratio is at most 0.25.

On to EISW, for which the enrichment ratio is at most 0.25.

Regarding KLKS, the enrichment ratio was at most 0.25.

On to NNMW, for which the enrichment ratio is at most 0.25.

Turning to TDAK, the enrichment ratio is at most 0.25.

In the case of PKKL, the enrichment ratio is at most 0.25.

As for NCCH, the enrichment ratio was at most 0.25.

Regarding IGWV, the enrichment ratio is at most 0.25.

In the case of PFAT, the enrichment ratio is at most 0.25.

IKVF: the enrichment ratio is at most 0.25.

In the case of SPWQ, the enrichment ratio is at most 0.25.

Consider EDHM, for which the enrichment ratio was at most 0.25.

In the case of MDLV, the enrichment ratio is at most 0.25.

In the case of FKMA, the enrichment ratio was at most 0.25.

With FGDR, the enrichment ratio is at most 0.25.

In the case of QDWH, the enrichment ratio is at most 0.25.

Take EVYY: the enrichment ratio was at most 0.25.

For the variant FDKR, the enrichment ratio was at most 0.25.

Regarding WFGI, the enrichment ratio was at most 0.25.

HQDR: the enrichment ratio is at most 0.25.

Regarding APMG, the enrichment ratio is at most 0.25.

For HNIS, the enrichment ratio is at most 0.25.

As to KYND, the enrichment ratio is at most 0.25.

For the variant MYQF, the enrichment ratio is at most 0.25.

With HVIK, the enrichment ratio is at most 0.25.

Consider VNMW, for which the enrichment ratio was at most 0.25.

Turning to SIVQ, the enrichment ratio is 2.45.

In the case of VHGQ, the enrichment ratio was at most 0.25.

Take QVSA: the enrichment ratio was at most 0.25.

DHPD: the enrichment ratio was at most 0.25.

In the case of WASR, the enrichment ratio was at most 0.25.

With TCLR, the enrichment ratio stood at 2.06.

For FPEQ, the enrichment ratio is at most 0.25.

As for AKLP, the enrichment ratio is at most 0.25.

Turning to EWTC, the enrichment ratio was at most 0.25.

Regarding WEKH, the enrichment ratio was at most 0.25.

Regarding YNSS, the enrichment ratio was at most 0.25.

Take VGAS: the enrichment ratio is at most 0.25.

Regarding VYKE, the enrichment ratio was at most 0.25.

With THCG, the enrichment ratio came to 5.77.

In the case of AFLT, the enrichment ratio was at most 0.25.

For HCMM, the enrichment ratio was at most 0.25.

In the case of EDFG, the enrichment ratio was at most 0.25.

Take YDKE: the enrichment ratio is at most 0.25.

As for GGTI, the enrichment ratio was found to be 4.18.

Turning to DLFD, the enrichment ratio amounted to 0.45.

As for MLIY, the enrichment ratio was at most 0.25.

As for PFWY, the enrichment ratio was at most 0.25.

Take LMAW: the enrichment ratio is at most 0.25.

On to AQAQ, for which the enrichment ratio was found to be 10.5.

In the case of PQRG, the enrichment ratio was at most 0.25.

Turning to KRSK, the enrichment ratio is at most 0.25.

For NYRM, the enrichment ratio was at most 0.25.

As to SAWH, the enrichment ratio was at most 0.25.

Regarding INLI, the enrichment ratio stood at 3.06.

Consider PLPQ, for which the enrichment ratio is at most 0.25.

As to YYPP, the enrichment ratio is at most 0.25.

As to FPDI, the enrichment ratio is at most 0.25.

For the variant ASFL, the enrichment ratio is 3.62.

Regarding TTGM, the enrichment ratio was 28.6.

Consider DLLV, for which the enrichment ratio was at most 0.25.

Regarding WTSD, the enrichment ratio is at most 0.25.

As to LSNW, the enrichment ratio was at most 0.25.

With WHTL, the enrichment ratio is at most 0.25.

Regarding VSEA, the enrichment ratio was at most 0.25.

Take LMNC: the enrichment ratio is at most 0.25.

With HQGY, the enrichment ratio was at most 0.25.

For the variant LMQV, the enrichment ratio was at most 0.25.

Take NGQG: the enrichment ratio was at most 0.25.

FLSQ: the enrichment ratio was at most 0.25.

Take YHQC: the enrichment ratio is at most 0.25.

For the variant HGYG, the enrichment ratio is at most 0.25.

As to EWTW, the enrichment ratio is at most 0.25.

In the case of PYWD, the enrichment ratio is at most 0.25.

Consider LRTS, for which the enrichment ratio is at most 0.25.

As for MSME, the enrichment ratio was at most 0.25.

For IHVV, the enrichment ratio was at most 0.25.

IQIR: the enrichment ratio was at most 0.25.

With SVMN, the enrichment ratio is 6.82.

As for YNSH, the enrichment ratio was at most 0.25.

Regarding EHNM, the enrichment ratio was at most 0.25.

In the case of SPRI, the enrichment ratio is at most 0.25.

For the variant YRHL, the enrichment ratio was at most 0.25.

In the case of FQPS, the enrichment ratio is at most 0.25.

Take NLGS: the enrichment ratio was at most 0.25.

With LWEM, the enrichment ratio was at most 0.25.

On to RIKA, for which the enrichment ratio was at most 0.25.

For the variant HERC, the enrichment ratio was at most 0.25.

For YKML, the enrichment ratio is at most 0.25.

Turning to PCMP, the enrichment ratio was at most 0.25.

For YVCY, the enrichment ratio is at most 0.25.

In the case of FREE, the enrichment ratio was at most 0.25.

Consider NYKY, for which the enrichment ratio was at most 0.25.

Consider FQLN, for which the enrichment ratio came out at 9.96.

For NLDG, the enrichment ratio is at most 0.25.

On to ACDY, for which the enrichment ratio is at most 0.25.

For IQQW, the enrichment ratio was at most 0.25.

As for EFIG, the enrichment ratio is at most 0.25.

Turning to SHDK, the enrichment ratio was at most 0.25.

Turning to RMYF, the enrichment ratio is at most 0.25.

Turning to YPYD, the enrichment ratio is at most 0.25.

Take YNWE: the enrichment ratio is at most 0.25.

Turning to AQPG, the enrichment ratio was at most 0.25.

For the variant SGGD, the enrichment ratio is at most 0.25.

On to YGIG, for which the enrichment ratio was at most 0.25.

For LLCC, the enrichment ratio was at most 0.25.

On to HRPA, for which the enrichment ratio is at most 0.25.

As to KDMI, the enrichment ratio was at most 0.25.
